This note sets out measurements from paper PMC7819943, “Rice protein-binding microarrays: a tool to detect cis-acting elements near promoter regions in rice”.

The list shows a part of the results.

In the assay the target is T1, OsWOX13 (Oryza sativa, UniProt Q5QMM3 1-267).
T1 sequence: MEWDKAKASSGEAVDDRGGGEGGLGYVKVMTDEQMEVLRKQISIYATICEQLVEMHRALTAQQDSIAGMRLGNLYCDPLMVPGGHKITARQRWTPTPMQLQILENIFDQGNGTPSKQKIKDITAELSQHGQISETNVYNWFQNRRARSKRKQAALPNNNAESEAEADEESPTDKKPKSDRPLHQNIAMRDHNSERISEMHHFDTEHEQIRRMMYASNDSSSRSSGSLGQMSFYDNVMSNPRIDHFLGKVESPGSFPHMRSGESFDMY
As to the kind of experiment: protein-binding microarray (RPBM); PBS, 2% BSA, 51.3 ng/ul salmon testes DNA, 50 uM zinc acetate, 200 nM TF, 25 C, 1 h; high values mean tight binding. The settings on record: protein: recombinant; tags: N-terminal polyhistidine and DsRed monomer fusion (pET32a); label: CyDye5-dUTP incorporated in the synthesized complementary strand; 3' TTTTT single-stranded linker to array surface; dsDNA, one strand shown. A digest of the protocol: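 An Axon 4000B scanner gave the binding signal as per-feature fluorescence intensity in arbitrary units. This followed washing of a custom Agilent array that had been incubated for 1 h at 25 °C with 200 nM protein in PBS, 2% BSA, salmon testes DNA and 50 µM zinc acetate. The proteins were transcription factors fused at the N-terminus to polyhistidine and DsRed, expressed in E. coli BL21-CodonPlus and purified on Ni–NTA.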
For “TCTACAAAATTGACGATATAAATGTTGGAGATGTTGAACTCGGAGTCACCTAGTGCAG”, the binding signal was 16900 fluorescence intensity (a.u.).

For the sequence “GTCCAATTAACCTAGCTTAAGTTGATCAAGCATCTCTACTCGGAGTCACCTAGTGCAG”, the binding signal was 10700 fluorescence intensity (a.u.).

As for “AATAATTTTATGTATCAATTTATTCCATCACCTCATTCTACGGAGTCACCTAGTGCAG”, the binding signal was 23700 fluorescence intensity (a.u.).

As for “GCCTAATTAATCCATGATTAGCCTATGTGATGCTATAGTACGGAGTCACCTAGTGCAG”, the binding signal was 52700 fluorescence intensity (a.u.).

In the case of “TTCAACTTATGATTTGATTAGCTAACGTTGAGATTTTACGCGGAGTCACCTAGTGCAG”, the binding signal was 22000 fluorescence intensity (a.u.).

As for “ACCCATCAACTCCTCAATCAAATCTTTAACAAAAGTGCATCGGAGTCACCTAGTGCAG”, the binding signal was 20200 fluorescence intensity (a.u.).

“GATAATTGCGTTGCATTTGTTAAAATGTAAGTAGATAATGCGGAGTCACCTAGTGCAG”: the binding signal is 26300 fluorescence intensity (a.u.).

As to “CAGGTGTGATTGAAGTGATGTACTCAACTTACACCCGGGCCGGAGTCACCTAGTGCAG”, the binding signal was 54400 fluorescence intensity (a.u.).

“AAAATAATGAGTGAATGACAACGTTGTACCGACCGCGCCGCGGAGTCACCTAGTGCAG”: the binding signal was 5960 fluorescence intensity (a.u.).

Turning to “TTGCAATTAACAAAAGCTAGCTACTACATCTAATAGGAATCGGAGTCACCTAGTGCAG”, the binding signal is 3750 fluorescence intensity (a.u.).

On to “AGGAGGAGGAGGAGGAGGAGGAGGAGGCGGTGGGAGGGATCGGAGTCACCTAGTGCAG”, for which the binding signal was 8140 fluorescence intensity (a.u.).

Consider “TGAGATTATATATAAACTTTTGATTTGAGCGTAAGTTAAGCGGAGTCACCTAGTGCAG”, for which the binding signal is 16400 fluorescence intensity (a.u.).

As to “ATTAATGATTGATAGTCAGTCACTTAGCCATGTTATTTTGCGGAGTCACCTAGTGCAG”, the binding signal is 65500 fluorescence intensity (a.u.).

For the sequence “CTGATTTATATATATATATATGTAGACATCCAGAGAGAGACGGAGTCACCTAGTGCAG”, the binding signal was 5280 fluorescence intensity (a.u.).

For “TCATAAAGTTTAATCAATCAAAGAAGCCTGCATGGATTGACGGAGTCACCTAGTGCAG”, the binding signal is 18900 fluorescence intensity (a.u.).

Turning to “ATCCAATTATAATTGGCCCAAAAGTTATACATCATGTAAGCGGAGTCACCTAGTGCAG”, the binding signal is 23800 fluorescence intensity (a.u.).

For “GTGTACTATTGATTGAGGAGTAGCATCCATAATTAGAGTGCGGAGTCACCTAGTGCAG”, the binding signal is 29400 fluorescence intensity (a.u.).

Regarding “GGAATAATGGGTTAATGGTTAATTGCTTAATCTCGCCTTGCGGAGTCACCTAGTGCAG”, the binding signal is 19800 fluorescence intensity (a.u.).

On to “CAGTTTCTCAATCATGAAGCAACGAGATGTGGTACTTGTACGGAGTCACCTAGTGCAG”, for which the binding signal is 6100 fluorescence intensity (a.u.).

Regarding “TTGTGTGGATTACGTTGACTAATTAATGGCGAATTCGATCCGGAGTCACCTAGTGCAG”, the binding signal was 11900 fluorescence intensity (a.u.).

In the case of “ACTAATTCAGGTAATTAGGGCCAAAGATTATGCGTACCTGCGGAGTCACCTAGTGCAG”, the binding signal was 23400 fluorescence intensity (a.u.).

Regarding “CTGCGTTTATTTGGGTTTATTTGGGGCTGAGAGAGTACATCGGAGTCACCTAGTGCAG”, the binding signal was 6060 fluorescence intensity (a.u.).

With “AATAACTAGAAAAGATGACCGAAATTGGGAAGGCGACTTGCGGAGTCACCTAGTGCAG”, the binding signal was 3250 fluorescence intensity (a.u.).

“CACACCTTCTGTACGAAATTAATTGACCGCGTGATCGCGTCGGAGTCACCTAGTGCAG”: the binding signal was 15500 fluorescence intensity (a.u.).

“CCTAACTAATCCATGATTAGCCTATGTGATGCTACAGTAACGGAGTCACCTAGTGCAG”: the binding signal was 33500 fluorescence intensity (a.u.).

For “ATTTGCAAATATTGATTTGTTAAATTTTATATCATTCTTGCGGAGTCACCTAGTGCAG”, the binding signal was 12600 fluorescence intensity (a.u.).

For “TCATCTAATTAATTGGCAAGGTGATATGCGTCCCTGAAAACGGAGTCACCTAGTGCAG”, the binding signal is 39500 fluorescence intensity (a.u.).

As to “AGAAAATCATTAGCTGCAATTACTCCCTTCTTCCTTAGATCGGAGTCACCTAGTGCAG”, the binding signal is 4300 fluorescence intensity (a.u.).

As to “AGTAATTAAGTAGGATATATGTATTATCTAAACTCTAGGCCGGAGTCACCTAGTGCAG”, the binding signal was 15300 fluorescence intensity (a.u.).

Regarding “TATATGAGATTGCTAGATTGACGACGGTTGTCTGTCTGTCCGGAGTCACCTAGTGCAG”, the binding signal was 37600 fluorescence intensity (a.u.).

Regarding “TTTGATAAACTGGCAAGCACGGGTGAATTTTGCATCAACACGGAGTCACCTAGTGCAG”, the binding signal is 13500 fluorescence intensity (a.u.).

As to “GAAGAAATTAACTCATTCATCAATGTGACAAAACCAACGACGGAGTCACCTAGTGCAG”, the binding signal is 9080 fluorescence intensity (a.u.).

Consider “CCTCACCAATCAGTCAGTACTCAGTACAAGTGAAGCAATCCGGAGTCACCTAGTGCAG”, for which the binding signal is 10400 fluorescence intensity (a.u.).

Regarding “CACGCCGCCCAATCACCACCTCATATACCTCGCGATCCCTCGGAGTCACCTAGTGCAG”, the binding signal was 4870 fluorescence intensity (a.u.).

For “TTGCTTAATTATTAGTACTGGTCCTAGGACAGTACCAGGTCGGAGTCACCTAGTGCAG”, the binding signal was 19400 fluorescence intensity (a.u.).

“ATATCAATTAATGCTTCAAGATTAGCACCCATATTATATGCGGAGTCACCTAGTGCAG”: the binding signal was 35100 fluorescence intensity (a.u.).

Regarding “CGAACCCTTAGATTAATTGGTTTGGATTTTGACTCTTAGGCGGAGTCACCTAGTGCAG”, the binding signal was 14700 fluorescence intensity (a.u.).

In the case of “TGTGATTGGTAATTGCCGAACTATTTGAAAATGGTGCGTGCGGAGTCACCTAGTGCAG”, the binding signal was 62300 fluorescence intensity (a.u.).

Turning to “AGTTTCTACCCTTAAATTGATAAATTGAAGTTTCTCAATCCGGAGTCACCTAGTGCAG”, the binding signal is 9590 fluorescence intensity (a.u.).

Turning to “AATTGATTACGGCTTATAGTTTAGGACGAAGGAAGCATTACGGAGTCACCTAGTGCAG”, the binding signal is 25000 fluorescence intensity (a.u.).

As for “TTGAACAATAAATTGCTAAAATTGTTAAATGGCATTGACTCGGAGTCACCTAGTGCAG”, the binding signal was 11400 fluorescence intensity (a.u.).

As for “GTTTAATGATTAATCTAGTAACATTAATTTTACATTATTGCGGAGTCACCTAGTGCAG”, the binding signal is 32300 fluorescence intensity (a.u.).
